The target of experiment [1] is BD·CBL10 (calcineurin B-like protein 10 fused to the GAL4 DNA-binding domain) (Arabidopsis thaliana) (UniProt Q7FRS8). The experiment can be described thus: two-hybrid; yeast strain Y190; BD (pGBT9.BS) and AD (pGAD.GH) fusions; growth on SC-HLW (HIS3 reporter), LacZ filter-lift assay; 30°C.
Experiment [2] deals with BD·CBL2 (calcineurin B-like protein 2 fused to the GAL4 DNA-binding domain) (Arabidopsis thaliana) (UniProt Q8LAS7). The description is as above.
Experiment [3] has as its target BD·CBL1 (calcineurin B-like protein 1 fused to the GAL4 DNA-binding domain) (Arabidopsis thaliana) (UniProt O81445). Described as above.
Experiment [4] concerns the target BD·CBL4 (calcineurin B-like protein 4 fused to the GAL4 DNA-binding domain) (Arabidopsis thaliana) (UniProt O81223). Described as above.
For experiment [5], the target named is BD·CBL3 (calcineurin B-like protein 3 fused to the GAL4 DNA-binding domain) (Arabidopsis thaliana) (UniProt Q8LEM7). Described as above.
For experiment [6], the target named is BD·CBL6 (calcineurin B-like protein 6 fused to the GAL4 DNA-binding domain) (Arabidopsis thaliana) (UniProt Q9C5P6). Described as above.
Experiment [7] has as its target T1, BD·CBL5 (calcineurin B-like protein 5 fused to the GAL4 DNA-binding domain) (Arabidopsis thaliana) (UniProt Q7FZF1).
T1 sequence: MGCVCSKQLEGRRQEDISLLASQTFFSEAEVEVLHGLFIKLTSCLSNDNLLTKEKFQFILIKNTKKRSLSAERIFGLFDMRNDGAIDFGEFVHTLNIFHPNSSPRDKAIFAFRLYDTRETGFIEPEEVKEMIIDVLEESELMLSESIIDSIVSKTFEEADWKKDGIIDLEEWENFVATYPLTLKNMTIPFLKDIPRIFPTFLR
The experiment is described as above.

Chains of the proteins cited; added tags and fusions are not shown.
UniProt Q7FRS8: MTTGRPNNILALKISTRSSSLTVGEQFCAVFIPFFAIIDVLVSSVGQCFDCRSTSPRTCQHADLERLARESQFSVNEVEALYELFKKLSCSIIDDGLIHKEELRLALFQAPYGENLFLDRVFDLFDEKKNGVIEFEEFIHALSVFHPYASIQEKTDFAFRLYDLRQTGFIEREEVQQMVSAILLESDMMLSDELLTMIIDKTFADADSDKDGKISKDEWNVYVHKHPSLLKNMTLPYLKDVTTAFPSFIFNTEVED
UniProt O81445: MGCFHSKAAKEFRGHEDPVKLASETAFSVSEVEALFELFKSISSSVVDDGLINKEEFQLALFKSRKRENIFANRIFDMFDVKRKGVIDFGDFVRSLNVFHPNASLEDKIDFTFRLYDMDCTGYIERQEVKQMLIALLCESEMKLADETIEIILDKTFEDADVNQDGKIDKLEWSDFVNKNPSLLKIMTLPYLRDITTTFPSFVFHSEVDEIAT
UniProt O81223: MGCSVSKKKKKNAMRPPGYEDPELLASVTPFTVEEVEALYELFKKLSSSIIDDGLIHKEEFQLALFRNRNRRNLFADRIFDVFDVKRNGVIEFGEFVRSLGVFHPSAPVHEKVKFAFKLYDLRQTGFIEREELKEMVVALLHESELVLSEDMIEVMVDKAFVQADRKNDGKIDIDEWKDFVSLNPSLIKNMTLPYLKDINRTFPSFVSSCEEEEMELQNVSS
UniProt Q9C5P6: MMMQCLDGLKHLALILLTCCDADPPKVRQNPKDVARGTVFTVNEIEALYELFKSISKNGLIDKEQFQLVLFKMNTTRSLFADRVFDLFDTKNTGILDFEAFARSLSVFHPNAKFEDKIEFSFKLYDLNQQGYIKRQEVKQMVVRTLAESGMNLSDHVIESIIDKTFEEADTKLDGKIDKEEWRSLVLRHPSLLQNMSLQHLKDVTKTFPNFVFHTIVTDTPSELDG
UniProt Q9LTB8: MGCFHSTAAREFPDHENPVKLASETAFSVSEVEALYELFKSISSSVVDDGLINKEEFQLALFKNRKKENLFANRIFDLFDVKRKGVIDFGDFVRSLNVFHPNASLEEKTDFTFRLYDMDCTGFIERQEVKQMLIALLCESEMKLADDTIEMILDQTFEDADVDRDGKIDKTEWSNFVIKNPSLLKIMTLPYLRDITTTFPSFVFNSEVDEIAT
UniProt Q9SUA6: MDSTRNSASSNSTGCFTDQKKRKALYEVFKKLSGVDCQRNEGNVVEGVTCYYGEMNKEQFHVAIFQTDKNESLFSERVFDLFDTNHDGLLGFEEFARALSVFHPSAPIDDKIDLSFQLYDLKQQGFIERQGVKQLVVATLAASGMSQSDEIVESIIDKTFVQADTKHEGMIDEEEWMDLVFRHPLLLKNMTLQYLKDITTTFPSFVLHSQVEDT

The target of experiment [8] is T2, BD·CBL8 (calcineurin B-like protein 8 fused to the GAL4 DNA-binding domain) (Arabidopsis thaliana) (UniProt Q9FUQ7).
T2 sequence: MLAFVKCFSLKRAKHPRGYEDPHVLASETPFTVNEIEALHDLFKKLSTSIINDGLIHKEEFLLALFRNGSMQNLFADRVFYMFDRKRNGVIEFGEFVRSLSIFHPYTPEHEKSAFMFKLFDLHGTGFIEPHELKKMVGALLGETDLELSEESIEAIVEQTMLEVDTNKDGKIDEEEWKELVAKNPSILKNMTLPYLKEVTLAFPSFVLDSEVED
The description is as above.

In experiment [9] the target is BD·CBL9 (calcineurin B-like protein 9 fused to the GAL4 DNA-binding domain) (Arabidopsis thaliana) (UniProt Q9LTB8). The description is as above.
The target in experiment [10] is BD·CBL7 (calcineurin B-like protein 7 fused to the GAL4 DNA-binding domain) (Arabidopsis thaliana) (UniProt Q9SUA6). The description is as above.
Experiment [11] addresses BD·CBL10 (calcineurin B-like protein 10 fused to the GAL4 DNA-binding domain) (Arabidopsis thaliana) (UniProt Q7FRS8). The experiment can be described thus: two-hybrid; yeast two-hybrid system; data not shown.

No constants are given. Whether binding was seen depends on the method and setting. Some entries that bind do so weakly or less than the wild type. For some of these results: Where a sequence is shown, tags or fusion partners need not be part of it.

As for PLVRAIKSDVSRESKPAWELRDSGLASRRS (domain or fragment, UniProt Q38906 284-313), the binding result in experiment [1] is given as “no binding”.

B1: AD·TOC34-C1 (TOC34 with N-terminal deletion down to the 260th residue, fused to the GAL4 activation domain) (domain or fragment, UniProt Q38906 261-313)
chain: NPNERGKKLIPLMFAFQYLLVMKPLVRAIKSDVSRESKPAWELRDSGLASRRS
As to B1, the binding result in [1] is “binds”.

B2: AD·TOC34-N (TOC34 lacking the last 54 amino acids, fused to the GAL4 activation domain) (domain or fragment, UniProt Q38906 1-259)
chain: MAALQTLREWIGIQQFPPATQSKLLEILGKYKEEDVSSLTVLVMGKGGVGKSSTVNSVIGEKAAAVSTFQSEGLRPTLVSRTRSGFTLNIIDTPGLIEGGYVNDQAINIIKRFLLNMTIDVLLYVDRLDVYRVDDLDRQVVGAITDAFGKEIWKKSALVLTHAQFSPPDGLNYNHFVSKRSNALLKVIQTGAQLKKQDLQGFSIPVILVENSGRCHKNESDEKILPCGTSWIPNLFNKITEISFNGNKAIHVDKKLVEG
B2: the binding entry in [1] is given as “no binding”.

B3: AD·TOC34 (full-length Translocon of the Outer membrane of the Chloroplasts 34 fused to the GAL4 activation domain) (protein, UniProt Q38906 1-313)
chain: MAALQTLREWIGIQQFPPATQSKLLEILGKYKEEDVSSLTVLVMGKGGVGKSSTVNSVIGEKAAAVSTFQSEGLRPTLVSRTRSGFTLNIIDTPGLIEGGYVNDQAINIIKRFLLNMTIDVLLYVDRLDVYRVDDLDRQVVGAITDAFGKEIWKKSALVLTHAQFSPPDGLNYNHFVSKRSNALLKVIQTGAQLKKQDLQGFSIPVILVENSGRCHKNESDEKILPCGTSWIPNLFNKITEISFNGNKAIHVDKKLVEGPNPNERGKKLIPLMFAFQYLLVMKPLVRAIKSDVSRESKPAWELRDSGLASRRS
In the case of B3, the binding result in experiment [2], in [3], in [4], in [5], in experiment [6] and in experiment [7] was “no binding” each time. In addition, the binding result is on record as “no binding” in experiment [8], “no binding” in experiment [9] and “binds weakly” in experiment [10].

B4: TOC33 (TOC34-like protein, At1g02280) (protein, UniProt O23680 1-297)
chain: MGSLVREWVGFQQFPAATQEKLIEFFGKLKQKDMNSMTVLVLGKGGVGKSSTVNSLIGEQVVRVSPFQAEGLRPVMVSRTMGGFTINIIDTPGLVEAGYVNHQALELIKGFLVNRTIDVLLYVDRLDVYRVDELDKQVVIAITQTFGKEIWCKTLLVLTHAQFSPPDELSYETFSSKRSDSLLKTIRAGSKMRKQEFEDSAIAVVYAENSGRCSKNDKDEKALPNGEAWIPNLVKAITDVATNQRKAIHVDKKMVDGSYSDDKGKKLIPLIIGAQYLIVKMIQGAIRNDIKTSGKPL
On to B4, for which, in experiment [11], the binding entry is listed as “binds”.

The record behind these values is publication PMC5156837.
